Measured values taken from PubChem BioAssay AID485313 (National Center for Advancing Translational Sciences (NCATS), 2010).
Out of some 320,000 compounds screened, about 7,600 (2.4%) were called active. The inconclusive results got no clear call from the source; some entries with a clear call stand among them for comparison. Calls follow the shape of the dose curve; as a rule, active = well fitted activation curve with a large enough effect; inconclusive = small, poorly fitted or top-dose-only effect; inactive = no such curve, though single readings can be large or run the other way. Potencies of inconclusive entries are left out as doubtful fits.

test: qHTS Assay for NPC1 Promoter Activators; settings: Huh7 NPC1 promoter luciferase reporter, 24 h; series mostly up to 9.22 µM; also: nearly all actives have a fitted effect of over 60% in size;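 as to activation: reporter is driven by a mutant NPC1 promoter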
Summary of the method: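 Luminescence read-out of NPC1 promoter-driven luciferase in stably transfected Huh7 cells; compounds delivered in DMSO and left 24 h at 37C, 5% CO2, qHTS titration format.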
Potency is read from the fitted curve at half-maximal effect; tags tell the direction and shape of the fitted curve.

Row | SMILES | Potency
1 | Cc1oc(-c2ccc(-c3ccccc3)cc2)nc1CN(C)C1CCOC1 (configuration not stated) | inconclusive [activator, full curve]
2 | c1ccc(Nc2nc(-c3ccncc3)cs2)nc1 | active: 2.24 µM
3 | COc1cccc(-c2nc3ccccc3c(=O)o2)c1 | inactive
4 | O=C(CNC(=O)c1ccccc1F)Nc1ccc2c(c1)CCC2 | inconclusive [activator, partial curve]
5 | CCN(CC(=O)Nc1ccc(C(=O)Nc2ccc(OC)cc2)cc1)Cc1nc2ccccc2c(=O)[nH]1 | inactive
6 | Cc1cc(Cl)c(S(=O)(=O)N2CCN(c3ccccn3)CC2)cc1OCC(=O)NC1CCCCC1 | inactive
7 | N#CC(=C1CCCC1)c1nc(-c2ccc(Cl)cc2)cs1 | active: 2.51 µM
8 | Cc1sc(NC(=O)C2CCCCC2)c(C#N)c1-c1ccccc1 | inconclusive [activator, partial curve]
9 | CC1Cc2cc(/C(O)=C3/C(=O)C(=O)N(CCCn4ccnc4)C3c3ccco3)ccc2O1 (configuration not stated) | inconclusive [activator, single point]
10 | [O-]/[N+](=C\c1ccncc1)c1ccc(Br)cc1 | inconclusive [activator, single point]
11 | Cc1ccnc(NC(=O)c2ccc([N+](=O)[O-])s2)c1 | active: 3.16 µM
12 | O=C(N/N=C/c1ccccc1[N+](=O)[O-])c1ccc2c(c1)OCCO2 | active: 0.631 µM
13 | CCOc1ccc2nc(NC(=O)c3cccnc3)sc2c1 | active: 1.58 µM
14 | Cc1cc(C)nc(NC(=O)CSc2nc3ccccc3s2)n1 | inconclusive [activator, single point]
15 | COc1ccc(N(CC(=O)Nc2ccc(C(C)C)cc2)S(=O)(=O)c2c(C)noc2C)cc1 | inactive
16 | Oc1ccc(N=Nc2ccc3c(c2)OCO3)c2ccccc12 | inconclusive [activator, single point]
17 | CC(C)=CCN1CCN(Cc2cnc(N3CCOCC3)s2)CC1CCO (configuration not stated) | active: 3.16 µM
18 | O=C1/C(=C/c2ccsc2)CC/C1=C\c1cccs1 | inconclusive [activator, full curve]
19 | C/C(=N\NC(=O)C1=NNC(=O)C1C)c1cccs1 (configuration not stated) | inconclusive [activator, single point]
20 | Cc1ccc(C(=O)N2CCc3ccccc32)cc1 | inconclusive [activator, single point]
21 | Cc1ccccc1NC(=O)c1cnn(-c2ccccc2)c1C | inconclusive [activator, partial curve]
22 | CCOC(=O)CSC(=S)NC(=O)c1ccc(OC)cc1 | inactive
